# Target: T1, human CTLA-4 (human, UniProt P16410 36-223)
# T1 construct: whole, on cells; also called CHO/CTLA-4 cells
# Assay: flow cytometry on CHO/CTLA-4 cells
# Method: Binding affinity to CD28 was determined using primary human T cells which endogenously express CD28. Binding to PD-L1 was determined using SCC152 cells transduced with human PD-L1. Binding to CTLA-4 was measured using Chinese hamster ovary (CHO) cells stably transduced to express human CTLA-4.
# For staining and analysis by flow cytometry, 75,000 human T cells, SCC152/PD-L1 cells, or CHO/CTLA-4 cells were plated in 96-well round-bottom plates. Cells were spun down and resuspended in staining buffer (PBS (phosphate buffered saline), 1% BSA (bovine serum albumin), 1 mM EDTA, and 0.1% sodium azide) for 20 minutes to block non-specific binding. Afterwards, cells were centrifuged, stain buffer aspirated, and then resuspended in 50 μL of a 1:5 serial dilution of each CD80-Fc candidate variant starting at 100 nM ending at 0.8 nM. Primary staining was performed on ice for 60 minutes, before washing cells in […] staining buffer three times. PE-conjugated anti-human Fc (Jackson ImmunoResearch, USA) was diluted 1:250 in 50 μL staining buffer and added to cells and incubated another 30 minutes at 4° C. Cells were washed two times in 150 μL stain buffer and then fixed in 2% formaldehyde/PBS for 5 minutes at room temperature. Samples were analyzed CytoFLEX LX flow cytometer (Beckman Coulter, USA). Median Fluorescence Intensity (MFI) was calculated for each cell type using the CytExpert software from Beckman Coulter.
# T1 sequence (P16410 36-223): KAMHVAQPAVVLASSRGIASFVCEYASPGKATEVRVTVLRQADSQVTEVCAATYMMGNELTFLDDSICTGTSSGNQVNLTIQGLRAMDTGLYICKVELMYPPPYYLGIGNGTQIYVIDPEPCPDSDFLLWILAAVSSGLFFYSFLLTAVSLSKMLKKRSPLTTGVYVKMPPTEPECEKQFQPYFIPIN
Binder,MFI at 0.8 nM [MFI],MFI at 4 nM [MFI],MFI at 20 nM [MFI],MFI at 100 nM [MFI],fold change vs WT CD80 at 20 nM [fold]
"CD80_185 variant CD80 IgV-Fc (V11Y, T28Y, M47L) (Fc fusion, also called CD80_185-Fc) VIHVTKEVKEYATLSCGHNVSVEELAQYRIYWQKEKKMVLTMMSGDLNIWPEYKNRTIFDITNNLSIVILALRPSDEGTYECVVLKYEKDAFKREHLAEVTLSVKADGSGGGGS[omitted - human IgG4 Fc with S228P (EU numbers)]",343000,521000,555000,547000,0.67
"CD80_171 variant CD80 IgV-Fc (E7S, H18I, V20L, A26K, M47L, A71N) (Fc fusion, also called CD80_171-Fc) VIHVTKSVKEVATLSCGINLSVEELKQTRIYWQKEKKMVLTMMSGDLNIWPEYKNRTIFDITNNLSIVILNLRPSDEGTYECVVLKYEKDAFKREHLAEVTLSVKADGSGGGGS[omitted - human IgG4 Fc with S228P (EU numbers)]",374000,557000,565000,559000,0.68
"CD80-219 variant CD80 IgV-Fc (E10S, V11Y, M42R, A71V) (Fc fusion, also called CD80_219-Fc) VIHVTKEVKSYATLSCGHNVSVEELAQTRIYWQKEKKMVLTRMSGDMNIWPEYKNRTIFDITNNLSIVILVLRPSDEGTYECVVLKYEKDAFKREHLAEVTLSVKADGSGGGGS[omitted - human IgG4 Fc with S228P (EU numbers)]",73300,226000,471000,567000,0.57
"CD80_166 variant CD80 IgV-Fc (V11Y, M47V, L85E) (Fc fusion, also called CD80_166-Fc) VIHVTKEVKEYATLSCGHNVSVEELAQTRIYWQKEKKMVLTMMSGDVNIWPEYKNRTIFDITNNLSIVILALRPSDEGTYECVVEKYEKDAFKREHLAEVTLSVKADGSGGGGS[omitted - human IgG4 Fc with S228P (EU numbers)]",305,312,333,,0
"CD80_165 variant CD80 IgV-Fc (V11Y, M47V, F59S, L85E) (Fc fusion, also called CD80_165-Fc) VIHVTKEVKEYATLSCGHNVSVEELAQTRIYWQKEKKMVLTMMSGDVNIWPEYKNRTISDITNNLSIVILALRPSDEGTYECVVEKYEKDAFKREHLAEVTLSVKADGSGGGGS[omitted - human IgG4 Fc with S228P (EU numbers)]",3680,10800,12500,87700,0.02
"CD80-220 variant CD80 IgV-Fc (H18F, T28V, M47L, V68S) (Fc fusion, also called CD80_220-Fc) VIHVTKEVKEVATLSCGFNVSVEELAQVRIYWQKEKKMVLTMMSGDLNIWPEYKNRTIFDITNNLSISILALRPSDEGTYECVVLKYEKDAFKREHLAEVTLSVKADGSGGGGS[omitted - human IgG4 Fc with S228P (EU numbers)]",232000,468000,542000,591000,0.65
"CD80-218 variant CD80 IgV-Fc (V11W, T28Y, D46V, V68T, R73T, Y87N) (Fc fusion, also called CD80_218-Fc) VIHVTKEVKEWATLSCGHNVSVEELAQYRIYWQKEKKMVLTMMSGVMNIWPEYKNRTIFDITNNLSITILALTPSDEGTYECVVLKNEKDAFKREHLAEVTLSVKADGSGGGGS[omitted - human IgG4 Fc with S228P (EU numbers)]",150000,365000,547000,573000,0.66
"CD80_175 variant CD80 IgV-Fc (E10S, V11F, T28Y, M47L, T62S) (Fc fusion, also called CD80_175-Fc) VIHVTKEVKSFATLSCGHNVSVEELAQYRIYWQKEKKMVLTMMSGDLNIWPEYKNRTIFDISNNLSIVILALRPSDEGTYECVVLKYEKDAFKREHLAEVTLSVKADGSGGGGS[omitted - human IgG4 Fc with S228P (EU numbers)]",340000,529000,542000,,0.65
"CD80_167 variant CD80 IgV-Fc (V11Y, M42I, M47V, A71G) (Fc fusion, also called CD80_167-Fc) VIHVTKEVKEYATLSCGHNVSVEELAQTRIYWQKEKKMVLTIMSGDVNIWPEYKNRTIFDITNNLSIVILGLRPSDEGTYECVVLKYEKDAFKREHLAEVTLSVKADGSGGGGS[omitted - human IgG4 Fc with S228P (EU numbers)]",892,2480,1340,35300,0
"CD80_170 variant CD80 IgV-Fc (K9N, E10G, E35G, D46E, M47V, V68M) (Fc fusion, also called CD80_170-Fc) VIHVTKEVNGVATLSCGHNVSVEELAQTRIYWQKGKKMVLTMMSGEVNIWPEYKNRTIFDITNNLSIMILALRPSDEGTYECVVLKYEKDAFKREHLAEVTLSVKADGSGGGGS[omitted - human IgG4 Fc with S228P (EU numbers)]",252000,505000,555000,597000,0.67
"CD80_172 variant CD80 IgV-Fc (K9R, E10S, V11Y, M42L, F59M, V68M, L85E) (Fc fusion, also called CD80_172-Fc) VIHVTKEVRSYATLSCGHNVSVEELAQTRIYWQKEKKMVLTLMSGDMNIWPEYKNRTIMDITNNLSIMILALRPSDEGTYECVVEKYEKDAFKREHLAEVTLSVKADGSGGGGS[omitted - human IgG4 Fc with S228P (EU numbers)]",256000,491000,573000,567000,0.69
"CD80_176 variant CD80 IgV-Fc (E10R, H18Y, A26G, E35D, V68L, L85E) (Fc fusion, also called CD80_176-Fc) VIHVTKEVKRVATLSCGYNVSVEELGQTRIYWQKDKKMVLTMMSGDMNIWPEYKNRTIFDITNNLSILILALRPSDEGTYECVVEKYEKDAFKREHLAEVTLSVKADGSGGGGS[omitted - human IgG4 Fc with S228P (EU numbers)]",23700,75100,214000,403000,0.26
"CD80_169 variant CD80 IgV-Fc (E10G, E35G, D46E, M47V, V68M) (Fc fusion, also called CD80_169-Fc) VIHVTKEVKGVATLSCGHNVSVEELAQTRIYWQKGKKMVLTMMSGEVNIWPEYKNRTIFDITNNLSIMILALRPSDEGTYECVVLKYEKDAFKREHLAEVTLSVKADGSGGGGS[omitted - human IgG4 Fc with S228P (EU numbers)]",284000,563000,591000,621000,0.71
"CD80_173 variant CD80 IgV-Fc (V11Y, T28Y, M47L, L85E) (Fc fusion, also called CD80_173-Fc) VIHVTKEVKEYATLSCGHNVSVEELAQYRIYWQKEKKMVLTMMSGDLNIWPEYKNRTIFDITNNLSIVILALRPSDEGTYECVVEKYEKDAFKREHLAEVTLSVKADGSGGGGS[omitted - human IgG4 Fc with S228P (EU numbers)]",209000,388000,505000,521000,0.61

# Target: CD28 on Jurkat/IL2-reporter cells (UniProt P10747 19-220, limits assumed)
# Assay: cell-based or functional assay
Binder,Fold Increase over WT at 50 nM [fold],Rel. Luminescence Units (RLU) 2 nM [RLU],Rel. Luminescence Units (RLU) 10 nM [RLU],Rel. Luminescence Units (RLU) 50 nM [RLU],Rel. Luminescence Units (RLU) 250 nM [RLU]
"CD80_180 variant CD80 IgV-Fc (E10G, V11W, T28Y, M47L) (Fc fusion) VIHVTKEVKGWATLSCGHNVSVEELAQYRIYWQKEKKMVLTMMSGDLNIWPEYKNRTIFDITNNLSIVILALRPSDEGTYECVVLKYEKDAFKREHLAEVTLSVKADGSGGGGS[omitted - human IgG4 Fc with S228P (EU numbers)]",2.69,3100,3460,6560,8800
"CD80_181 variant CD80 IgV-Fc (K9S, E10R, V11Y, M47L, A71G) (Fc fusion) VIHVTKEVSRYATLSCGHNVSVEELAQTRIYWQKEKKMVLTMMSGDLNIWPEYKNRTIFDITNNLSIVILGLRPSDEGTYECVVLKYEKDAFKREHLAEVTLSVKADGSGGGGS[omitted - human IgG4 Fc with S228P (EU numbers)]",1.64,2430,2540,4010,8020

# From patent publication US20250243260A1 (ALPINE IMMUNE SCIENCES, published 2025)
